Measurements as given in the RNAGym collection of RNA variant scans (doi:10.7554/elife.90254).
The source gives no read counts; variants with many changes may rest on few reads.

B1: LINE1-mini (parent)
chain: GGCAGAGCUCAACACAGCGUGGCAAAGUGGCUGUGGCUAGACUGCC

Variants of: B1
Assay: self-cleavage, relative activity (ratio to wild type); higher = more cleavage; in vitro, sequencing; the parent is a self-cleaving ribozyme

| Variant | self-cleavage |
| --- | --- |
| AGCAGAGCUCAACACAGCGUGCCAAAGUGGCUGUGGCUAGUCUGCC [G1A G22C A41U] | 0.92 |
| AGCAGAGCUCAACACAGCGUGCUAAAGUGGCUGUGGCUAGACUUCC [G1A G22C C23U G44U] | 1.19 |
| AGCAGAGCUCAACACAGCGUGCCAAAGUGGCUGGGCCUAGACUGCC [G1A G22C U34G G36C] | 0.11 |
| AGCAGAGCUCAACACAGCGUGUCAAAGUGGCUGUGGCUAGACUGCA [G1A G22U C46A] | 1.67 |
| AGCAGAGCUCAACACAGCGUGUCAAAGUGUCUGUGACUAGACUGCC [G1A G22U G30U G36A] | 0.09 |
| AGCAGAGCUCAACACAGCGUGUCAAAGUGGCAGUGGCUAAACUGCC [G1A G22U U32A G40A] | 0.05 |
| AGCAGAGCUCAACACAGCGUGGCAAAUUGGCUUUGGCUAGAUUGCC [G1A G27U G33U C42U] | 0.04 |
| AGCAGAGCUCAACACAGCGUGGCAAAUUGGCUGUCGCUAGACUGCC [G1A G27U G35C] | 0.07 |
| AGCAGAGCUCAACACAGCGUGGCAAAGUAGCUUUGGCUAGACUGCG [G1A G29A G33U C46G] | 0.12 |
| AGCAGAGCUCAACACAGCGUGGCAAAGUAGCGGUGGCUAGACUGCC [G1A G29A U32G] | 0.09 |
| AGCAGAGCUCAACACAGCGUGGCAAAGUAGCUGCGGCUAGACUCCC [G1A G29A U34C G44C] | 0.07 |
| AGCAGAGCUCAACACAGCGUGGCAAAGUUGGGGUGGCUAGACUGCC [G1A G29U C31G U32G] | 0.06 |
| AGCAGAGCUCAACACAGCGUGGCAAAGUGACUGUGGCUAGACUUCC [G1A G30A G44U] | 0.14 |
| AGCAGAGCUCAACACAGCGUGGCAAAGUGCCUAUGGCUAGACUGCC [G1A G30C G33A] | 0.08 |
| AGCAGAGCUCAACACAGCGUGGCAAAGUGCCUGUGGCUAAACUGCC [G1A G30C G40A] | 0.05 |
| AGCAGAGCUCAACACAGCGUGGCAAAGUGUCUGUGGCUUGACUGAC [G1A G30U A39U C45A] | 0.28 |
| AGCAGAGCUCAACACAGCGUGGCAAAGUGUCUGUGGCUAGUCUGCC [G1A G30U A41U] | 0.36 |
| AGCAGAGCUCAACACAGCGUGGCAAAGUGUUUGUGGCUAGCCUGCC [G1A G30U C31U A41C] | 0.04 |
| AGCAGAGCUCAACACAGCGUGGCAAAGUGUCUGUGGUUAGGCUGCC [G1A G30U C37U A41G] | 0.09 |

| Variant | self-cleavage |
| --- | --- |
| AGCAGAGCUCAACACAGCGUGGCAAAGUGUCUGUGGCUAGAUUGCC [G1A G30U C42U] | 0.05 |
| AGCAGAGCUCAACACAGCGUGGCAAAGUGGCUAUGGAUAGACUGCC [G1A G33A C37A] | 0.05 |
| AGCAGAGCUCAACACAGCGUGGCAAAGUGGCUCUGCCUAAACUGCC [G1A G33C G36C G40A] | 0.08 |
| AGCAGAGCUCAACACAGCGUGGCAAAGUGGCUUUCGCUAGACUGCC [G1A G33U G35C] | 0.07 |
| AGCAGAGCUCAACACAGCGUGGCAAAGUGGCUUUUGCUAGACUGCC [G1A G33U G35U] | 0.04 |
| AGCAGAGCUCAACACAGCGUGGCAAAGUGGCUUUGGCUACACUGCC [G1A G33U G40C] | 0.06 |
| AGCAGAGCUCAACACAGCGUGGCAAAGUGGCUGUGUCUUGACUGCC [G1A G36U A39U] | 0.05 |
| AGCAGAGCUCAACACAGCGUGGCAAAGUGGCUGUGUAUAGACUGCC [G1A G36U C37A] | 0.1 |
| AGCAGAGCUCAACACAGCGUGGCAAAGUGGCUGUGUCUAUACUGCC [G1A G36U G40U] | 0.07 |
| AGCAGAGCUCAACACAGCGUGGCAAAGUGGCUGUGUCAAGACUGCC [G1A G36U U38A] | 0.07 |
| AGCAGAGCUCAACACAGCGUGGCAAAGUGGCUGUGGCUAAGCUGCC [G1A G40A A41G] | 0.15 |
| AGCAGAGCUCAACACAGCGUGGCAAAGUGGCUGUGGCUAUACUGAC [G1A G40U C45A] | 0.03 |
| AGCAGAGCUCAACACAGCGUGGCAAAGUGGCUGUGGCUAGACUAUA [G1A G44A C45U C46A] | 0.13 |
| AGCAGAGCACAACUCAGCGUGGCAAAGUGGCUGUGGCUAGACUGCC [G1A U9A A14U] | 0.26 |
| AGCAGAGCAAAACACAGCGUUGCAAAGUGGCUGUGGGUAGACUGGC [G1A U9A C10A G21U C37G C45G] | 0.03 |
| AGCAGAGCACAACAGAGCUUGGCAAAGUGGAUGGGGCUAGACUGCC [G1A U9A C15G G19U C31A U34G] | 0.06 |
| AGCAGAGCACAACAUAGCGUUGCAGAGUGGCUGUGGCUAGACUGCC [G1A U9A C15U G21U A25G] | 0.1 |
| AGCAGAGCACAACACAGCGUGGCAAAGUGGCUGUGGCUAGACUGGC [G1A U9A C45G] | 0.53 |
| AGCAGAGCACAACACAACGUGGCAAAGUGGCUGUUUCUAGACUGCC [G1A U9A G17A G35U G36U] | 0.08 |

| Variant | self-cleavage |
| --- | --- |
| AGCAGAGCACAACACACCGUGGCAAACUGGCUGUGGCUAGACUGCC [G1A U9A G17C G27C] | 0.08 |
| AGCAGAGCACAACACAGCGUGGCAAAGGGGCUGUGGCUAGACUGCC [G1A U9A U28G] | 0.48 |
| AGCAGAGCACAACACAGCGUGGCAAAGGUACUGUGGCUAGACUGCC [G1A U9A U28G G29U G30A] | 1.89 |
| AGCAGAGCCAAACACAGCGUGGCAAAGUGGUUGUGGCUAGACUGCC [G1A U9C C10A C31U] | 0.07 |
| AGCAGAGCCCAAUACAGCGUGGCAAAGUGGCUGUGGCUAAUCUGCC [G1A U9C C13U G40A A41U] | 0.07 |
| AGCAGAGCCCAACAUAGCGUGGCAAAGUGGCUGUGGCUAGACUGCC [G1A U9C C15U] | 0.07 |
| AGCAGAGCCCAACACAGCGUGGCAAAGUGGCUGUGGCUAGAAUGCC [G1A U9C C42A] | 0.09 |
| AGCAGAGCCCAACACAGCGUUGCAAAGUGGCUGUGGCUAGACUGCC [G1A U9C G21U] | 0.12 |
| AGCAGAGCCCAACACAGCGGGGCAAAGUGGCUGUGGCUAGUCUGCC [G1A U9C U20G A41U] | 0.11 |
| AGCAGAGCCCAACACAGCGUGGCAAAGCGCCAGUUGCUAGACUGCC [G1A U9C U28C G30C U32A G35U] | 0.02 |
| AGCAGAGCGCAACACCGCGUGGCAGAGUGGCUGUGGCUAGACUGCC [G1A U9G A16C A25G] | 0.16 |
| AGCAGAGCGCAACACAGAGUGGCAAAGUGGCUGUGUCUAGACUGCC [G1A U9G C18A G36U] | 0.57 |
| AGCAGAGCGCAACACAGGGUGGCAAAGUGGCUGUGGCUAGUCUUCC [G1A U9G C18G A41U G44U] | 0.17 |
| AGCAGAGCGCAACACAGCGUGGCAAAGUGGCUGUGGCUAAACUGCC [G1A U9G G40A] | 0.08 |
| AGCAGAGCUCAACACAGCGAGGCAAAAUGGCUGUGGCUAGACUGCC [G1A U20A G27A] | 0.51 |
| AGCAGAGCUCAACACAGCGCGGCAAAGUGGCUGUGGCUAGUCUGCC [G1A U20C A41U] | 0.32 |
| AGCAGAGCUCAACACAGCGCGGAAAAGUGGCUGUGGCUAGACUGCC [G1A U20C C23A] | 0.12 |
| AGCAGAGCUCAACACAGCGGGGCAAAGUGGCUGUGGCUAGGCUGCC [G1A U20G A41G] | 0.1 |
